Data taken from the RNAGym collection of RNA variant scans (doi:10.7554/elife.90254).
The source gives no read counts; variants with many changes may rest on few reads.

B1: LINE1-full (parent)
chain: UACGUAGGUGGUUUUCCCCUGAUAGUGCUAAGGGGGCCUGGAAGUUUGGACUGGGCAGAGCUCAACACAGCGUGGCAAAGUGGCUGUGGCUAGACUGCCUCUCUGGAUUCCUCGUCACUCAGCAGGGCAUCUCUGAGAGAAAUGCC

Variants of: B1
Test: self-cleavage, relative activity (ratio to wild type); higher = more cleavage; in vitro, sequencing; the parent is a self-cleaving ribozyme

Row | Variant | self-cleavage
1 | U20A A107G U112C | 0.79
2 | U20A A124U A129G | 1.76
3 | U20A A136G U143C | 1.72
4 | U20A C37U A67U | 0.11
5 | U20A C37U U109C U115C | 1.7
6 | U20A C38A U39A | 0.75
7 | U20A C61U U112C | 0.04
8 | U20A G25A G75A | 0.72
9 | U20A G25A U100C | 0
10 | U20A G27A G33A U109C | 0.66
11 | U20A G27U U73A A142G | 1.84
12 | U20A G32U A94G | 0.14
13 | U20A G33U U87A A138G | 0.05
14 | U20A G34A U143C | 2.02
15 | U20A G36C G127U | 1.02
16 | U20A G40A A57U A129G | 0.09
17 | U20A G49U U62C | 0.01
18 | U20A G54A U91C A141U | 0
19 | U20A G75U A78G A79G | 0.53
20 | U20A G114A U115C U143C | 1.75
21 | U20A U23C U45A | 1.25
22 | U20A U23C U45A U104G | 0.93
23 | U20A U26A U62C | 0.12
24 | U20A U26A U91A | 0.37

Row | Variant | self-cleavage
25 | U20A U26A U143C | 1.45
26 | U20A U26G A138G | 1.8
27 | U20A U29A A67U U143C | 0.03
28 | U20A U29C U87C | 0.57
29 | U20A U39A A42G A92G | 0.09
30 | U20A U39A A92G | 0.13
31 | U20A U39C A65G | 0
32 | U20A U39C A65G G88U | 0.05
33 | U20A U39C A141C | 0.54
34 | U20A U45C A117U | 1.26
35 | U20A U46C U87C A121U G126A | 0.39
36 | U20A U46C U91C C98U | 0.22
37 | U20A U46C U134C | 0
38 | U20A U47G A65G U132C | 0.08
39 | U20A U52C A67G | 0.57
40 | U20A U52C A78G | 1.7
41 | U20A U52C U119G | 1.31
42 | U20A U52G C68U A94G | 0.17
43 | U20A U62C A121U | 0.04
44 | U20A U62C U96C | 0
45 | U20A U73A C84A U104C | 0.15
46 | U20A U73A U102A A117U | 0.76
47 | U20A U73C A136G | 0
48 | U20A U85A A117G | 0.23

Row | Variant | self-cleavage
49 | U20A U85C U102A | 0.19
50 | U20A U85C U115C G137A | 0.27
51 | U20A U87A A94U U100C A117G | 0.13
52 | U20A U108A U119C U132C A140G | 0.46
53 | U20A U108C A136G A142G | 1.53
54 | U20A U132C A142G U143A | 1.14
55 | U20A U134C A140G | 1.85
56 | U20C A22G A42G U46C | 1.62
57 | U20C A22G A92U | 0.51
58 | U20C A22G C110U | 0.83
59 | U20C A22G U115C | 1.08
60 | U20C A24C U47A A142G | 1.45
61 | U20C A24G A43G A65U U108C | 0
62 | U20C A24U A57G A129U C133U U134C | 1.11
63 | U20C A30G U47C A121U | 1.13
64 | U20C A30U A117U | 0.91
65 | U20C A31G G60A | 0
66 | U20C A31G U52C G93C | 0.18
67 | U20C A31G U130C | 1.84
68 | U20C A31U G88A A142G | 0.04
69 | U20C A31U U112C C116U | 1.29
70 | U20C A42G A43U U52C G72A | 1.49
71 | U20C A42G A57U A107G | 0.08
72 | U20C A42G A77U A141G | 1.62

Row | Variant | self-cleavage
73 | U20C A42G C51U A117U | 1.39
74 | U20C A42G G72A A94G U96C | 0
75 | U20C A42G U73C U109C | 0
76 | U20C A42G U85A A107U | 0.06
77 | U20C A42G U85A U108A | 0
78 | U20C A42G U143A | 0.83
79 | U20C A42U U45C A67G G72A U134C A142G | 0.84
80 | U20C A42U U73A | 1
81 | U20C A43G C63U U104A | 0.28
82 | U20C A43G C84U U104C U134G | 0.29
83 | U20C A43G U112C U119C U143C | 0.77
84 | U20C A43U A79U | 1.86
85 | U20C A43U A141G | 1.56
86 | U20C A43U U52A A77G | 2.32
87 | U20C A50G A77U A121G A140G | 0
88 | U20C A50G A94G | 0.33
89 | U20C A50G C51A A78G U87C A140G | 0.08
90 | U20C A50U G58U A69U U87C A124U | 0.09
91 | U20C A57G U62C A78G A129G | 0
92 | U20C A57U U102C | 0.08
93 | U20C A59G C101U U112C U115C | 0.18
94 | U20C A59G U87A U132A | 0
95 | U20C A59G U108C C118U | 0.12
96 | U20C A59U A67U U108C | 0.29

Row | Variant | self-cleavage
97 | U20C A59U U85C U109A | 0.18
98 | U20C A59U U100G U112A U143A | 1.19
99 | U20C A64C A79G C113U A141G | 0.36
100 | U20C A64G A136G | 0.36
101 | U20C A65G U115A A136G | 0
102 | U20C A67G G127A | 1.05
103 | U20C A67U U73C A141G | 0.2
104 | U20C A69G A129U A136G | 1.08
105 | U20C A69G U109C | 0.34
106 | U20C A69G U132A | 0.38
107 | U20C A69U U81C G93A G126A | 0.07
108 | U20C A77U U85A U100C U112A U115C C120U | 0.18
109 | U20C A78G A138G A141G | 1.58
110 | U20C A78G A141G | 2.09
111 | U20C A78G U109C | 1.73
112 | U20C A78G U134C | 1.4
113 | U20C A78G U143A | 1.6
114 | U20C A79G A117U G126A | 1.97
115 | U20C A79G A140G G144A | 0.85
116 | U20C A92G U134C | 0
117 | U20C A121U A136G | 1.22
118 | U20C A124G A142G | 1
119 | U20C A138G A141G | 2.09
120 | U20C C28A U102C | 1.64

Row | Variant | self-cleavage
121 | U20C C28U A69G | 0
122 | U20C C51A A69G | 0.42
123 | U20C C51U U96G U102C | 0
124 | U20C C56A U112C A140G | 0.05
125 | U20C C71U A124U | 1.18
126 | U20C C84U U100C | 0.27
127 | U20C C90U A141G | 0.03
128 | U20C C98U U100C U143C | 1.36
129 | U20C G25A A92G A121G U143A | 0
130 | U20C G25A U104A | 0.73
131 | U20C G25A U130C A138G | 1.23
132 | U20C G32A A50G A57G | 0
133 | U20C G32A U104A | 0.64
134 | U20C G32U A43G C99A A107G U119A | 0.67
135 | U20C G33A U73C | 1.58
136 | U20C G35A A124G | 0.7
137 | U20C G35A U45C U87C | 0.19
138 | U20C G36U A59G U108C | 0.02
139 | U20C G53A A117G A142U | 1.26
140 | U20C U23A A31U U109A A117U U134C | 1.69
141 | U20C U23C A30U G33U C131U | 2.07
142 | U20C U26A A50G U109A A129G | 1.04
143 | U20C U26C C123A | 1.01
144 | U20C U26C G32A C84U | 0.21

Row | Variant | self-cleavage
145 | U20C U26C G35A A124U | 1.45
146 | U20C U26C G54A C56A U96A | 0.02
147 | U20C U26G A31U A50G A92U G125U | 0.26
148 | U20C U26G A42G C51U A64G | 0.26
149 | U20C U26G U96A | 0.28
150 | U20C U29A U119A | 0.46
151 | U20C U39A C51U | 0.8
152 | U20C U39A G72A | 1.42
153 | U20C U39C A50U | 0.82
154 | U20C U39C A57G U96C A142G | 0
155 | U20C U39C U62C U73A U81C U104C A117U | 0
156 | U20C U45A A64U A78C | 0.99
157 | U20C U45A A138G U143C | 1.1
158 | U20C U45C U46C A69U | 0
159 | U20C U46A G74A U119A | 0.75
160 | U20C U46A U73A A129U | 0.92
161 | U20C U46A U115C | 2.3
162 | U20C U46C A79G G89A U102A | 0.06
163 | U20C U46C A138G | 2.24
164 | U20C U46C U91C U134A | 0
165 | U20C U47A G54A | 0.18
166 | U20C U47C A129G A136U | 1.4
167 | U20C U47C U62A | 0
